# Assay results published in PubChem BioAssay AID463173 (ICCB-Longwood Screening Facility, Harvard Medical School, 2010).
# Out of some 52,000 compounds screened, about 4,300 (8.3%) were called active. No stated cut-off is given here; in the data, active means survival mostly below about 52% (no sharp cut-off); inactive means mostly above about 56%. Some of the results follow.
# System: DeltatarO mutant
# Assay: growth inhibition of S. aureus wild type versus tarO mutant, primary screen, teichoic acid synthesis inhibitors, RN4220, OD600 (AID 463173)
# Conditions: OD600, 18 h, stronger effect = lower value, screened at 18.75 µg/mL (by protocol)
row,SMILES,survival
1,COc1cccc(N2CC(NC(=O)/C=C\c3ccc4c(c3)OCO4)CC2=O)c1 (stereo not given),inactive: 98%
2,Cc1cc(C)nc(SCC(=O)C(C)(C)C)n1,inactive: 99%
3,OC(COc1cccc2ccccc12)CN1CCOCC1 (stereo not given),inactive: 90%
4,Cc1ccc(NS(=O)(=O)c2ccc(NC(=O)N3CCCC3)cc2)cc1C,inactive: 75%
5,Cc1ccc(-n2c3nc(=O)n(C)c(=O)c-3cc3c(Cl)cccc32)c(C)c1,inactive: 82%
6,CCn1c(C(=O)N2CCC(C(=O)NCCc3ccccc3)CC2)cc2sccc21,inactive: 72%
7,CCC(Sc1nnc(-c2ccc(OC)cc2)c(-c2ccc(OC)cc2)n1)C(=O)NC1CCCCC1 (stereo not given),inactive: 78%
8,CC1CCCN(S(=O)(=O)c2ccc(NC(=O)c3nc(SC(C)C)ncc3Cl)cc2)C1 (stereo not given),active: 44%
9,O=C(C1CCCO1)N1CCc2ccccc21 (stereo not given),inactive: 71%
10,CCCCN(Cc1ccccc1)C(=O)c1oc(=O)c2ccccc2c1-c1ccc(C)cc1,active: 8%
11,O=C1c2ccccc2C(=O)N1c1ccc(S(=O)(=O)N2CCOCC2)cc1,inactive: 80%
12,COc1ccccc1/C=C/c1nc(C#N)c(N2CCCCCC2)o1,inactive: 78%
13,CC(C)OC(=O)CC12CN3CC(CC(=O)OC(C)C)(CN(C1)C(=O)c1ccccc1C3=O)C2=O,inactive: 98%
14,CCOc1ccccc1C(=O)Nc1c(NC)c2ccccc2oc1=O,inactive: 78%
15,Cc1ccc(-n2ccnc(NCc3ccccc3)c2=O)cc1C,inactive: 89%
16,O=C(NCc1cccc(F)c1)C1=Cc2cc(Br)ccc2OC1,inactive: 78%
17,Cn1c(=O)oc2cc(S(=O)(=O)N3CCCC(C(=O)Nc4ccc(Br)cc4F)C3)ccc21 (stereo not given),inactive: 97%
18,O=C(Nc1cc(C(F)(F)F)ccc1Cl)c1cc2nc(-c3ccc4c(c3)OCO4)cc(C(F)(F)F)n2n1,inactive: 95%
19,CCc1ccccc1NC(=O)CN1C(=O)CCc2cc(S(=O)(=O)N3CCCCC3)ccc21,inactive: 95%
20,Cc1ccc(CNC(=O)c2ccc(CSCc3ccc(Cl)cc3)o2)cc1,inactive: 79%
21,CCCCNS(=O)(=O)c1ccc2nc(NC(=O)c3cccnc3)sc2c1,inactive: 79%
22,Cc1cn(C)c(CC(=O)Nc2cccc(Cl)c2C)c1C(=O)O,inactive: 99%
23,CCc1ccc(NC(=O)c2ccc(F)c(S(=O)(=O)N3CCC(C)CC3)c2)cc1,inactive: 91%
24,Cc1cc(C)cc(NC(=O)CN2C(=O)c3ccccc3Sc3ccc(C(=O)N4CCOCC4)cc32)c1,inactive: 89%
25,COc1cc2c(cc1NS(=O)(=O)c1cccc(C#N)c1)n(C)c(=O)n2C,inactive: 87%
